Reference: PubChem BioAssay AID686979 (National Center for Advancing Translational Sciences (NCATS), 2013)
Screen size: about 420,000 compounds; about 50,000 (12%) were called active. The inconclusive results got no clear call from the source; some entries with a clear call stand among them for comparison. Calls come from the whole dose curve; as a rule, active = well fitted inhibition curve with a large enough effect; inconclusive = small, poorly fitted or top-dose-only effect; inactive = flat fitted curve, though single readings scatter. Potencies of inconclusive entries are left out as doubtful fits.
% is set by controls: 0 for no effect and ±100 for the full control effect; potency is the fitted concentration of half-maximal effect; tags give direction and shape of the fitted curve.

Test: qHTS for Inhibitors of human tyrosyl-DNA phosphodiesterase 1 (TDP1): qHTS in cells in presence of CPT; note: nearly all actives have a fitted effect of over 55% in size
Settings: chicken DT40 Tdp1-/-;hTDP1 cells + 20 nM CPT, ATP luminescence, 48 h; activity change, negative = growth inhibition: at 46.2 µM (top of the series) unless noted
Description: Human tyrosyl-DNA phosphodiesterase 1 (TDP1) is a novel repair gene, and we propose to use it as a new target for anticancer drug development. TDP1 is not an essential protein, but under treatment with topoisomerase I poison (camptothecin: CPT), TDP1 works as a critical factor for cell survival. To directly identify novel TDP1 inhibitors active in a cellular environment, we have knocked-out the Tdp1 gene in chicken DT40 cells (Tdp1-/-) and generated a complemented counterpart cells that contains a stable transfection of the human TDP1 gene (Tdp1-/-;hTDP1 cells). For the primary screen, Tdp1-/-;hTDP1 cells will be exposed to small molecules in the presence or absence of CPT, and their growth kinetics will be evaluated after 48 hours by measuring ATP activity. […] The hit compounds will then be evaluated in the presence or absence of CPT using Tdp1-/- cells. […] In tertiary assays, biochemical gel-based assays will be used to assess whether the hit compounds specifically target TDP1. To this end, we have screened this cell line against the MLSMR in two primary screens. In one screen we add CPT and in the other we screen in the absence of CPT; this AID represents the screen where CPT was present. NIH Chemical Genomics Center [NCGC] NIH Molecular Libraries Probe Centers Network [MLPCN] MLPCN Grant: MH095538 Assay Submitter (PI): Yves Pommier, NCI
DT40-hTDP1 cells with 20 nM Camptothecin (add 20 microL of 1 mM CPT stock in 1 L of cell culture medium) were dispensed at 400 cells/5microL/well in tissue culture treated 1536-well white wall/solid bottom assay plates (Greiner Bio-One North America, NC, U.S.A.) using a Multidrop Combi 8 channel dispenser (Thermo Fisher, Waltham, MA, USA). 23 nL compounds and controls were transferred using the pin tool (Kalypsys, San Diego, CA, USA) to the assay plates. The assay plates were then incubated at 37 masculineC for a minimum 48 hr. Three microL of Cell Titer Glo solution was added to the plates and incubated at RT in dark for 30 min. Luminescence was read using ViewLux (Perkin Elmer) with 1 sec exposure slow speed, high gain and 2x binning.
With `C=CCNS(=O)(=O)c1ccc(OC)c(C)c1` the activity change, negative = growth inhibition was inconclusive: -1.93% [inhibitor].
In the case of `Cc1nc(N)sc1C(=O)N1N=N1`, the Potency is reported as “inactive”.
With `O=c1cc(CN2CCN(c3ccc(Cl)c(Cl)c3)CC2)c2c(ccc3ccccc32)o1` the Potency was inconclusive [inhibitor, single point].
In the case of `Cc1ccc(C)c(NC(=O)CN2C(=O)c3ccccc3C2=O)c1`, the Potency is reported as “inactive”.
With `CC(C)CCNc1c(-c2cccs2)nc2ccccn12` the Potency was inconclusive [inhibitor, single point].
In the case of `Cc1ccc(Nc2nc3c(c(=O)[nH]2)CCCC3)cc1`, the Potency is reported as inconclusive [inhibitor, single point].
In the case of `CN(C)c1ccc(/C=C2\Oc3ccc(C#Cc4cccc(N)c4)cc3C2=O)cc1`, the Potency is reported as inconclusive [inhibitor, single point].
For `CCn1c(=NC(=O)CS(=O)(=O)c2ccc(C)cc2)sc2cccc(OC)c21`, the Potency was inconclusive [inhibitor, single point].
With `COc1cccc(NC(=O)C(=O)NCC(c2cccnc2)N2CCN(c3ccccc3)CC2)c1` (centres undefined) the Potency was inconclusive [inhibitor, single point].
For `NC(=O)c1ccsc1NC(=O)COC(=O)c1c(F)cccc1Cl`, the Potency was inconclusive [inhibitor, single point].
For `CCN(CC)S(=O)(=O)c1ccc(OC)c(NC(=O)c2ccc(=O)[nH]c2)c1`, the Potency was “inactive”.
With `CC(=O)n1nc(-c2cccnc2)nc1NCc1cccs1` the Potency was inconclusive [inhibitor, single point].
In the case of `COc1ccc(CSC(=N)N)cc1[N+](=O)[O-]`, the Potency is reported as active: 23.1 µM.
For `CCc1nc(SCC(=O)N2CCCC2)c2ccccc2n1`, the Potency was “inactive”.
With `Cc1ccccc1-n1nc(CO)c(C(=O)NCCc2ccccc2)n1` the Potency was inconclusive [inhibitor, single point].
For `CC(=O)c1c(OC(=O)c2ccco2)c2ccccc2n1C`, the Potency was inconclusive [inhibitor, single point].
For `CC(C)/C=C1\CC/C(=C\c2cccnc2)C1=O`, the Potency was inconclusive [inhibitor, single point].
In the case of `C=C1[C@@H](O)[C@H](CC(C)C)N(Cc2ccccc2Br)S1(=O)=O`, the Potency is reported as active: 5.01 µM.
With `C=CCOC(=O)C1=C[C@@H](c2ccccc2)[C@H](CCCO)[C@@H](OCC)O1` the Potency was active: 14.6 µM.
In the case of `Cc1cccc(C)c1NC(=O)CSc1nc(COc2ccccc2)nc2ccccc12`, the Potency is reported as inconclusive [inhibitor, single point].
In the case of `COc1cccc(CNc2ncnc3sc(C(=O)N4CC5CCC4C5)c(C)c23)c1OC` (centres undefined), the activity change, negative = growth inhibition is reported as inactive: -9.74% [at 9.04 µM].
For `O=C(NCC1CCCO1)C(=O)N/N=C/c1cc(Cl)ccc1O` (centres undefined), the Potency was inconclusive [inhibitor, single point].
With `O=C(CC12CC3CC(CC(C3)C1)C2)Nc1c(F)cccc1F` the Potency was inconclusive [inhibitor, single point].
With `CC1CCc2c(sc(NC(=O)c3ccccc3)c2C(=O)Nc2ccccc2)C1` (centres undefined) the Potency was active: 9.2 µM.
With `O=C(NC1CCCC1)C(c1ccccc1F)N(C(=O)c1ccco1)C1CCCC1` (centres undefined) the Potency was inconclusive [inhibitor, single point].
In the case of `O=C(N/N=C/c1c(O)n(-c2ccc(Cl)cn2)c(=O)c2ccccc12)C1CC1`, the Potency is reported as inconclusive [inhibitor, single point].
In the case of `CCC(C(=O)NCCCc1ccccc1)c1ccccc1` (centres undefined), the activity change, negative = growth inhibition is reported as inconclusive: -31.3% [inhibitor].
In the case of `O=[N+]([O-])c1ccc(Sc2nnnn2-c2ccccc2)c(Cl)c1`, the Potency is reported as inconclusive [inhibitor, single point].
With `Cc1c(C(=O)NC2CC(=O)N(c3ccc4c(c3)OCCO4)C2)cccc1[N+](=O)[O-]` (centres undefined) the Potency was “inactive”.
For `CN(C)CCCN(C(=O)c1ccco1)c1nc(-c2ccc(Cl)cc2)cs1`, the Potency was inconclusive [inhibitor, single point].
In the case of `CC(C)OCCCNC(=S)N1CCC(C(=O)c2ccc3c(c2)OCCO3)CC1`, the Potency is reported as inconclusive [inhibitor, single point].
With `CC(C)Oc1ccc(C(=O)OCC(=O)NC2CCCCCC2)cc1` the Potency was inconclusive [inhibitor, single point].
In the case of `C/C(=N\Nc1nc2ccccc2s1)c1ccc(Br)s1`, the Potency is reported as inconclusive [inhibitor, single point].
With `CSc1ccc(CN2CCC(C(=O)NCc3ccc(C)cc3)CC2)cc1` the Potency was inconclusive [inhibitor, single point].
With `Cc1cccc(CSc2cn(CC(=O)N3CCCCCC3)c3ccccc23)c1` the Potency was inconclusive [inhibitor, single point].
With `CCCCn1c(N)c(N(Cc2ccccc2OC)C(=O)c2ccc(N3CCCC3=O)cc2)c(=O)[nH]c1=O` the Potency was “inactive”.
In the case of `COc1ccc(CN2C=C3C(=O)C(C)(OC(=O)C4CCCC4)C(=O)C=C3C=C2c2ccsc2)cc1` (centres undefined), the Potency is reported as inconclusive [inhibitor, single point].
In the case of `Cc1[nH]c2ccc(F)cc2c1CCN(Cc1cccnc1)C(=S)Nc1ccccc1`, the Potency is reported as “inactive”.
In the case of `CCC(c1nnnn1CCc1ccccc1)N(Cc1ccco1)Cc1cc2cc(C)cc(C)c2[nH]c1=O` (centres undefined), the Potency is reported as active: 18.4 µM.
For `CC(=O)c1ccc(OCc2cccc(C(F)(F)F)c2)cc1O`, the Potency was “inactive”.
For `COc1ccc(Br)cc1C(=O)Nc1ccc(C(=O)NCC(C)C)cc1`, the Potency was “inactive”.
With `CC(=O)N1CCN(c2ccc(NC(=O)c3ccc([N+](=O)[O-])o3)cc2Cl)CC1` the Potency was active: 0.411 µM.
With `CCOC(=O)CSc1nc2ccc(NC(=O)COc3ccccc3)cc2s1` the Potency was inconclusive [inhibitor, single point].
In the case of `CC1CCCCN1CCCNC(=O)C1CCN(c2nc3ccccc3o2)CC1` (centres undefined), the Potency is reported as “inactive”.
With `COc1cc(/C=N/Nc2ncc(C(F)(F)F)cc2Cl)cc(OC)c1O` the Potency was inconclusive [inhibitor, single point].
In the case of `Clc1ccc(-c2[nH]ncc2N=Nc2ccccc2)cc1`, the Potency is reported as inconclusive [inhibitor, single point].
With `CN1CCN(C2=C(NS(=O)(=O)c3cccs3)C(=O)c3ccccc3C2=O)CC1` the Potency was active: 16.4 µM.
For `COc1ccc(OC)c(CNc2ncnc3onc(-c4ccc(Cl)cc4)c23)c1`, the Potency was active: 2.59 µM.
For `COc1ccc(N2CCN(C(=O)c3cccc(Cn4cc(Cl)cn4)c3)CC2)cc1`, the Potency was inconclusive [inhibitor, single point].
With `Cc1cc(C(=O)COC(=O)Cc2n[nH]c(=O)c3ccccc23)c(C)n1-c1cccc(C(F)(F)F)c1` the Potency was inconclusive [inhibitor, single point].
For `CC(NCC(O)COc1ccc(Br)cc1)c1ccccc1` (centres undefined), the Potency was inconclusive [inhibitor, single point].
For `Cn1c(=S)[nH]c(=O)c2ncc(=O)[nH]c21`, the Potency was “inactive”.
In the case of `O=C(CCCOc1ccc(Br)cc1)NCCc1ccc(OC(F)F)cc1`, the Potency is reported as “inactive”.
In the case of `C/C(=N\Nc1cc(N2CCOCC2)ncn1)c1ccccc1`, the Potency is reported as active: 23.1 µM.
For `N/C(=N\OC(=O)c1cccs1)c1cccc(Br)c1`, the Potency was “inactive”.
In the case of `C[C@@H]1COc2cccc(N(C)CCO)c2S(=O)(=O)N1`, the Potency is reported as “inactive”.
With `Cc1ccc(NC(=O)/C(=C\c2cccnc2)NC(=O)c2ccco2)cc1` the Potency was “inactive”.
In the case of `CCCCN(C)CCNC(=O)C1CCN(c2nc3ccc(CC)cc3s2)CC1`, the Potency is reported as active: 20.6 µM.
In the case of `COc1ccc(OCC(=O)NNC(=S)NC(=O)c2ccc([N+](=O)[O-])cc2)cc1`, the Potency is reported as inconclusive [inhibitor, single point].
With `COc1ccc(C2=NN(C(=O)COC(=O)c3ccc(NC(=O)CC#N)cc3)C(c3ccco3)C2)cc1` (centres undefined) the Potency was inconclusive [inhibitor, single point].
For `O=C(Nc1ccc(C(O)c2ccccc2)cc1)[C@@H]1O[C@H](CO)[C@@H](O)[C@H]1O` (some centres undefined), the Potency was “inactive”.
For `Cc1[nH]c2ccccc2c1C(=O)COC(=O)c1ccccc1SCC(=O)N1CCCC1`, the Potency was inconclusive [inhibitor, single point].
With `Cc1ccc([C@@H]2CC=C(C(=O)O)[C@H](c3cccc(Cl)c3)N2S(=O)(=O)c2ccc(C)cc2)cc1` the Potency was inconclusive [inhibitor, single point].
For `CCOC(=O)C1CCCN(C(=O)c2ccc(-c3ccccc3)cc2)CC1` (centres undefined), the Potency was active: 16.4 µM.
For `COc1ccc(C(c2nnnn2CC2CCCO2)N2CCN(c3ccccc3)CC2)cc1` (centres undefined), the Potency was “inactive”.
With `CC(=O)Nc1ccc(C(=O)CN2CCN(c3ccccc3)CC2)cc1` the Potency was “inactive”.
With `Cc1ccc(C)n1-n1c(C)nc2sc3c(c2c1=O)CCCCC3` the Potency was inconclusive [inhibitor, single point].
With `Cc1cccc(NC(=O)c2ccc3[nH]c(=O)c(=O)[nH]c3c2)n1` the Potency was “inactive”.
With `COc1cccc(C(=O)NN2c3ccccc3CCc3ccccc32)c1` the Potency was active: 20.6 µM.
In the case of `O=C1S/C(=C\c2ccc(O)c([N+](=O)[O-])c2)C(=O)N1Cc1cccc([N+](=O)[O-])c1`, the Potency is reported as inconclusive [inhibitor, single point].
In the case of `CC(C)(C)C1CCC(=NNC(=O)c2cc(-c3ccccc3)n[nH]2)CC1` (centres undefined), the Potency is reported as inconclusive [inhibitor, single point].
For `CCCCOCP(=O)(CCCC)COCCCC`, the Potency was “inactive”.
With `CCO[C@H]1OC(C(=O)N2CCN(C)CC2)=C[C@@H](c2ccc(Br)cc2)[C@@H]1CCCO` the Potency was “inactive”.
For `O=C(Nc1ccc(S(=O)(=O)Nc2ccccc2F)cc1)N1CCCCC1`, the activity change, negative = growth inhibition was inconclusive: -32.4% [inhibitor].
